No constants are given. Whether binding was seen depends on the method and setting. Some entries that bind do so weakly or less than the wild type. Where a sequence is shown, tags or fusion partners need not be part of it.
T1: Vps8-TAP (full-length Vps8, C-terminal TAP tag) (yeast (genomic locus of BY4741/BY4733 strains)) (UniProt P39702)
T1 sequence: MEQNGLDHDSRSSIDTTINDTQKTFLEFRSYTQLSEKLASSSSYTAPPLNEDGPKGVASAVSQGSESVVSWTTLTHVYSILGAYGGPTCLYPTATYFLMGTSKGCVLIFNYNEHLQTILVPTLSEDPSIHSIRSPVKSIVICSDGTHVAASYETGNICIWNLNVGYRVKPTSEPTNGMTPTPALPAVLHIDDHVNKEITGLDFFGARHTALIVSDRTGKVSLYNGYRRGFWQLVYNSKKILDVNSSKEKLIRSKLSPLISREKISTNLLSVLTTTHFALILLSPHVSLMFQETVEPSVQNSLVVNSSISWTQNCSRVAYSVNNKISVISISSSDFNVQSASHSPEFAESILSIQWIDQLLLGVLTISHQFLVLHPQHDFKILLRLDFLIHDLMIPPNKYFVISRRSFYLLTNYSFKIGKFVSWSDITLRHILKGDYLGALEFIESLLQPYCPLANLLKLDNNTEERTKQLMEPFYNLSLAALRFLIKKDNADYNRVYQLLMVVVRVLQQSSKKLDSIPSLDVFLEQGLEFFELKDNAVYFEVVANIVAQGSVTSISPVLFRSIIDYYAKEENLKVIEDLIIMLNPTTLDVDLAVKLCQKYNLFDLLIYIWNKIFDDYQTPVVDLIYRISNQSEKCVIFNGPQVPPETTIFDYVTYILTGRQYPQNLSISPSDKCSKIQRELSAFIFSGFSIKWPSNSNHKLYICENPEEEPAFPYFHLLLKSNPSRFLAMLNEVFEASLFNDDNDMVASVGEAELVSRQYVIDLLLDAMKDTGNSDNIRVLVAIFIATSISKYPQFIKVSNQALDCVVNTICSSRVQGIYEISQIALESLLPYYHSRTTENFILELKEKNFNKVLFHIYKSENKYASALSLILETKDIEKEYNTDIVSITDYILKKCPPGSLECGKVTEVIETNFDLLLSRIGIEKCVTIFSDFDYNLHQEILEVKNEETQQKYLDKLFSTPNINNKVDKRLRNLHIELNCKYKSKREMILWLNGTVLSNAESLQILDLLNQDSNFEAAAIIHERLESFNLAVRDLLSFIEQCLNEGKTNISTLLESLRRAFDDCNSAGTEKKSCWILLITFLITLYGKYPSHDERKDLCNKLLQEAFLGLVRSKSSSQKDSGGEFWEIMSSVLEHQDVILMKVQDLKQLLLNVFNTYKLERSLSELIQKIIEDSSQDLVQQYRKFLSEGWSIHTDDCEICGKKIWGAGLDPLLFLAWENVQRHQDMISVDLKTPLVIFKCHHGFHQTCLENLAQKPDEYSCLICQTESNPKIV

T2: Vps8ΔN-TAP (C-terminal domain of Vps8, from residue 451, C-terminal TAP tag) (yeast (genomic locus of BY4741/BY4733 strains)) (UniProt P39702)
T2 sequence: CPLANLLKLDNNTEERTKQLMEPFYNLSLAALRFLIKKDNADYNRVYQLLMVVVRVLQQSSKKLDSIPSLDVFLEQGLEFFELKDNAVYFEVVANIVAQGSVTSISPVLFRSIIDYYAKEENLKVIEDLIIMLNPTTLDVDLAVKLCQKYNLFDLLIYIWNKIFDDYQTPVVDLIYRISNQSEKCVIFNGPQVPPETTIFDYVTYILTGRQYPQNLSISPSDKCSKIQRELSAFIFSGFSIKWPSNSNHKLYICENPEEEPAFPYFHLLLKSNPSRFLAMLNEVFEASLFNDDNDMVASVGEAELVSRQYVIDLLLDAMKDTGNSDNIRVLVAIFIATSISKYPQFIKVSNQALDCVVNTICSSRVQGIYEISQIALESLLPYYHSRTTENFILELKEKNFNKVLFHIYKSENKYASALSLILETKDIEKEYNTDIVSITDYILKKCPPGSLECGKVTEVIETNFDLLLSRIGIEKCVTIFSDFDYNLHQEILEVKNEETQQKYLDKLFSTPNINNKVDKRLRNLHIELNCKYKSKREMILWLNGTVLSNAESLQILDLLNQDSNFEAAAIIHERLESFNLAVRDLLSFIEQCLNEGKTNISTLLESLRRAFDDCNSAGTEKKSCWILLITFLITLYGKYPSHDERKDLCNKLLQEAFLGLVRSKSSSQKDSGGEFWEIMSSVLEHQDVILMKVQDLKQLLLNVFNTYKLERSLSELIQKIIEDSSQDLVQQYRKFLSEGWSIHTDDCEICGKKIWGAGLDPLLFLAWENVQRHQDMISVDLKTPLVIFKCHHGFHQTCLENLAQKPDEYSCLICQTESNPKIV

T3: GST-Vps21 (yeast) (UniProt P36017)
T3 sequence: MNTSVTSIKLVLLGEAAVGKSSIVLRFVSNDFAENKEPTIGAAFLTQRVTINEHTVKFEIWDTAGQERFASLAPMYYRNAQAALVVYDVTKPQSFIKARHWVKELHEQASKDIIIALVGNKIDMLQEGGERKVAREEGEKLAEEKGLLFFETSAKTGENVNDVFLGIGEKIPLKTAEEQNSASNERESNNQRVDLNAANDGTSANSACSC


Columns and labels:
[1] = molecular target: T1, Vps8-TAP (full-length Vps8, C-terminal TAP tag) (yeast (genomic locus of BY4741/BY4733 strains)); test: tandem affinity purification + glycerol gradient centrifugation; large-scale purification of overexpressed CORVET or ΔNTD-CORVET via Vps8-TAP on IgG beads (buffer with 0.15% NP-40), TEV eluate on a linear 10%-40% glycerol gradient, 18 h, 4°C; fractions on SDS-PAGE, Coomassie
[2] = molecular target: T2, Vps8ΔN-TAP (C-terminal domain of Vps8, from residue 451, C-terminal TAP tag) (yeast (genomic locus of BY4741/BY4733 strains)); test: as above
GST-Vps21 (yeast) = molecular target: T3, GST-Vps21 (yeast); test: pull-down; 150 µg GST-Vps21 loaded with GTPγS (or GDP) on GSH-Sepharose; 35 µg yeast-purified Vps3-Cbp construct, 1 h at 4°C; 20 mM HEPES/NaOH pH 7.4, 150 mM NaCl, 2 mM MgCl2, 0.1% NP-40, 7 mg/ml BSA; eluted with 20 mM EDTA; blot against Cbp; both purified

Binder | binding (GST-Vps21 (yeast)) | further results
Vps3-GFP (full-length Vps3, GFP tag) (protein, UniProt P23643 1-1011) MVKKKTNNDKGKEVKENEGKLDIDSESSPHERENDKKKTEDDSLRATESEETNTHNANPNETVRADKFSQEESRPIEDSPHTDKNTAQESCQPSSAEDNVINTDITSLNEKTSTNDEQEKGLPLKISEGPFTISTLLDNVPSDLIYTCCEAYENHIFLGTTTGDLLHYFELERGNYMLVSQTKFDAESNSKIDKILLLPKVEGALILCDNELVLFILPEFAPRPNTTRLKGISDVVICNFSRSSKAYRIYAFHAEGVRLLKISADSLVLTKAFNFKLIDKACAHEETLMVSKLNSYELINLKSSQVIPLFRISETDEDLEPIITSFNEQSEFLVCSGGGSYDSGAMALVVNHHGDIIKGTIVLKNYPRNVIVEFPYIIAESAFQSVDIYSALPSEKSQLLQSITTSGSDLKISKSDNVFTNTNNSEEFKEKIFNKLRLEPLTHSDNKFRIERERAFVEESYEEKTSLIVYNNLGIHLLVPTPMVLRFTSCEESEIDNIEDQLKKLAKKDLTKFEHIEAKYLMSLLLFLMTLHYDHIEDEVMKKWCDFSDKVDIRILFYMFGWKVYSEIWCFHGLINIVERLKSLKLTNKCENILKMLLMMKNELKKKNKTGLLTNDFDDIMKTIDITLFKLRLEKKETITVDMFERESYDEIIREINLHDDKLPRIELLIEIYKEKGEYLKALNLLREAGDYISLVSFIEENLKKLPEDYIKERIADDLLLTLKQGDENTEECAIKKVLKILDMACINKNDFLNKIPAEETSLKVSFIEQLGVQNSNDSKFLFNYYLAKLREIINQSNIWSILGDFIKEYKDDFAYDKTDITNFIHIKLKHSLQCENFSKYYEKCENLKSENEKDDEFINFTFDEISKIDKEHILTLLFFPNELTNWVSSEELLKIYLSFNDFRSVEKYIGKQNLVAVMKQYLDISSLNYSVELVTNLLQRNFELLDDTDIQLKILETIPSVFPVQTISELLLKVLIKYQEKKEESNLRKCLLKNQISISDELSRNFDSQG | – | binding [1]: binds
Vps3ΔN-GFP (Vps3 from residue 427, GFP tag) (domain or fragment, UniProt P23643 427-1011) EFKEKIFNKLRLEPLTHSDNKFRIERERAFVEESYEEKTSLIVYNNLGIHLLVPTPMVLRFTSCEESEIDNIEDQLKKLAKKDLTKFEHIEAKYLMSLLLFLMTLHYDHIEDEVMKKWCDFSDKVDIRILFYMFGWKVYSEIWCFHGLINIVERLKSLKLTNKCENILKMLLMMKNELKKKNKTGLLTNDFDDIMKTIDITLFKLRLEKKETITVDMFERESYDEIIREINLHDDKLPRIELLIEIYKEKGEYLKALNLLREAGDYISLVSFIEENLKKLPEDYIKERIADDLLLTLKQGDENTEECAIKKVLKILDMACINKNDFLNKIPAEETSLKVSFIEQLGVQNSNDSKFLFNYYLAKLREIINQSNIWSILGDFIKEYKDDFAYDKTDITNFIHIKLKHSLQCENFSKYYEKCENLKSENEKDDEFINFTFDEISKIDKEHILTLLFFPNELTNWVSSEELLKIYLSFNDFRSVEKYIGKQNLVAVMKQYLDISSLNYSVELVTNLLQRNFELLDDTDIQLKILETIPSVFPVQTISELLLKVLIKYQEKKEESNLRKCLLKNQISISDELSRNFDSQG | – | binding [2]: binds
Vps3ΔN-TAP (C-terminal domain of Vps3, from residue 427, C-terminal TAP tag) (domain or fragment, UniProt P23643 427-1011) EFKEKIFNKLRLEPLTHSDNKFRIERERAFVEESYEEKTSLIVYNNLGIHLLVPTPMVLRFTSCEESEIDNIEDQLKKLAKKDLTKFEHIEAKYLMSLLLFLMTLHYDHIEDEVMKKWCDFSDKVDIRILFYMFGWKVYSEIWCFHGLINIVERLKSLKLTNKCENILKMLLMMKNELKKKNKTGLLTNDFDDIMKTIDITLFKLRLEKKETITVDMFERESYDEIIREINLHDDKLPRIELLIEIYKEKGEYLKALNLLREAGDYISLVSFIEENLKKLPEDYIKERIADDLLLTLKQGDENTEECAIKKVLKILDMACINKNDFLNKIPAEETSLKVSFIEQLGVQNSNDSKFLFNYYLAKLREIINQSNIWSILGDFIKEYKDDFAYDKTDITNFIHIKLKHSLQCENFSKYYEKCENLKSENEKDDEFINFTFDEISKIDKEHILTLLFFPNELTNWVSSEELLKIYLSFNDFRSVEKYIGKQNLVAVMKQYLDISSLNYSVELVTNLLQRNFELLDDTDIQLKILETIPSVFPVQTISELLLKVLIKYQEKKEESNLRKCLLKNQISISDELSRNFDSQG | no binding (tested: 35 µg of Vps3 construct) | –
Vps3ΔC-TAP (N-terminal domain of Vps3, up to residue 426, C-terminal TAP tag) (domain or fragment, UniProt P23643 1-426) MVKKKTNNDKGKEVKENEGKLDIDSESSPHERENDKKKTEDDSLRATESEETNTHNANPNETVRADKFSQEESRPIEDSPHTDKNTAQESCQPSSAEDNVINTDITSLNEKTSTNDEQEKGLPLKISEGPFTISTLLDNVPSDLIYTCCEAYENHIFLGTTTGDLLHYFELERGNYMLVSQTKFDAESNSKIDKILLLPKVEGALILCDNELVLFILPEFAPRPNTTRLKGISDVVICNFSRSSKAYRIYAFHAEGVRLLKISADSLVLTKAFNFKLIDKACAHEETLMVSKLNSYELINLKSSQVIPLFRISETDEDLEPIITSFNEQSEFLVCSGGGSYDSGAMALVVNHHGDIIKGTIVLKNYPRNVIVEFPYIIAESAFQSVDIYSALPSEKSQLLQSITTSGSDLKISKSDNVFTNTNNSE | no binding (tested: 35 µg of Vps3 construct) | –

From PMC3688683, “The N-Terminal Domains of Vps3 and Vps8 Are Critical for Localization and Function of the CORVET Tethering Complex on Endosomes” (PLoS ONE, 2013)
